{"sequences": {"note": "Chains of the proteins cited; added tags and fusions are not shown.", "UniProt P21796": "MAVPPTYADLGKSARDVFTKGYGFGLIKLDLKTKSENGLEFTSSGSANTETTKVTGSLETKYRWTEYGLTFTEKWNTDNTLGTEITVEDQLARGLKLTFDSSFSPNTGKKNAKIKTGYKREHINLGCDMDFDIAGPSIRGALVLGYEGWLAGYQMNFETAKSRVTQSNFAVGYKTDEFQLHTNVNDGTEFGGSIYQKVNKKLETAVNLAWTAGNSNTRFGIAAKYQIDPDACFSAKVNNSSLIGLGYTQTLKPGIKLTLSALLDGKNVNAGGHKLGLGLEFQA"}, "source": "paper PMC4147323", "key": {"[1]": {"biological_target": "T1, Never-in mitosis A-related protein kinase 1 (Nek1) (human (endogenous in HK2 and A498)) (UniProt Q96PY6)", "T1 sequence": "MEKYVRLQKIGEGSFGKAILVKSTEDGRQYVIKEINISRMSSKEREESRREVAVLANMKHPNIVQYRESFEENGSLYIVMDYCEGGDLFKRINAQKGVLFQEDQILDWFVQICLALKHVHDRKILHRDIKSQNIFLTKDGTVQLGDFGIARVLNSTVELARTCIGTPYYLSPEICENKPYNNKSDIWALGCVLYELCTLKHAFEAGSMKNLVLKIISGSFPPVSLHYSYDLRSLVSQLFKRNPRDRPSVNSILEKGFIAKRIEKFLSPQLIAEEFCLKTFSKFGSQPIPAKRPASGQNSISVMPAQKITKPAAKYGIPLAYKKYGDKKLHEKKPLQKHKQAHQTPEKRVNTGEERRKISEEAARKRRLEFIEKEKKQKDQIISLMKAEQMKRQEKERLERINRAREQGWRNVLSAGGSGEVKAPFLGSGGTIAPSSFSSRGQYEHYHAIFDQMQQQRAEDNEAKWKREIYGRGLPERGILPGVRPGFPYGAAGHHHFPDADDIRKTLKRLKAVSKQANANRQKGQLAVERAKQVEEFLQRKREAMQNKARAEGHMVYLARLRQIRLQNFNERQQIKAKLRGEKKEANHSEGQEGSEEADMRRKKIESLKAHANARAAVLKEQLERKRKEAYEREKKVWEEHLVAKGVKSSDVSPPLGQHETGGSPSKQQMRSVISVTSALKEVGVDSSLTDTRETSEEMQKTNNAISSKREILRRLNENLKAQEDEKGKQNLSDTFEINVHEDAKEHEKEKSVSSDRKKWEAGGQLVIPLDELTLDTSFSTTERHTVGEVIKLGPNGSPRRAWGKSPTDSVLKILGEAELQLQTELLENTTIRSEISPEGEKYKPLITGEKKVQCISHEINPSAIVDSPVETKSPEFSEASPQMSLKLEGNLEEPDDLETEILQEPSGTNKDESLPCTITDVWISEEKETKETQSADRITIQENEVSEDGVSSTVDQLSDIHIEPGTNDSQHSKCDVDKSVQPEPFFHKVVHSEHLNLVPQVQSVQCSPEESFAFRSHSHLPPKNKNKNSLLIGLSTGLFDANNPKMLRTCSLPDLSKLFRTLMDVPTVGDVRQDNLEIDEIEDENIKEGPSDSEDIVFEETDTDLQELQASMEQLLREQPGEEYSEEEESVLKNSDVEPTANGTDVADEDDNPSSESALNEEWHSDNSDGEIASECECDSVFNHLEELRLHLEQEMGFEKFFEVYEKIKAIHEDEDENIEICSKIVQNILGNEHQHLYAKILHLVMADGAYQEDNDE", "test": "co-IP; A498 cells, untreated or treated with lower doses of MMS for 1 hour, lysed, Nek1-VDAC1 complexes analysed by Western blotting as in Fig. 4"}, "[2]": {"biological_target": "T1, Never-in mitosis A-related protein kinase 1 (Nek1) (human (endogenous in HK2 and A498))", "test": "condition: only A498 cells treated with a higher dose of MMS for 1 hour (dose not given); co-IP; A498 cells treated with a higher dose of MMS for 1 hour (dose not given), lysed, Nek1-VDAC1 complexes analysed by Western blotting as in Fig. 4"}, "[3]": {"biological_target": "T1, Never-in mitosis A-related protein kinase 1 (Nek1) (human (endogenous in HK2 and A498))", "test": "condition: only HK2 cells treated with MMS (dissociated 1 hour after 0.025% or 0.075% W/V; not re-associated 4 hours after the lethal dose 0.075% W/V); co-IP; HK2 cells treated with MMS for 1 hour (dose series; 0.025% or 0.075% W/V with recovery up to 4 hours), lysates precipitated with anti-Nek1, blotted with anti-VDAC1"}, "[4]": {"biological_target": "T1, Never-in mitosis A-related protein kinase 1 (Nek1) (human (endogenous in HK2 and A498))", "test": "condition: only HK2 cells treated with H2O2 (soon after 0.01 mM or 0.1 mM; not re-associated after the lethal dose 0.1 mM); co-IP; HK2 cells treated with H2O2 (0.01 mM or 0.1 mM) for the specified times, lysates precipitated with anti-Nek1, blotted with anti-VDAC1"}, "[5]": {"biological_target": "T1, Never-in mitosis A-related protein kinase 1 (Nek1) (human (endogenous in HK2 and A498))", "test": "co-IP; clarified HK2 lysates (Lysis 250 buffer, freeze/thaw) precipitated with anti-Nek1 antibodies, blotted with anti-Nek1 or anti-VDAC1; mock-treated cells and cells recovering from a sublethal dose of H2O2 (0.01 mM, 60 min) or MMS (0.025% W/V, 4 hours)"}}, "note": "Results are given in words; binding and its absence hold for the method and conditions named. Binding seen in cells or lysates may run through a third protein. Some entries that bind do so weakly or less than the wild type.", "data": [{"substance": "voltage-dependent anion channel (VDAC1) (from UniProt P21796 1-283)", "values": [{"measurement": "binding", "setting": "[1]", "result": "binds"}, {"measurement": "binding", "setting": "[2]", "result": "no binding"}, {"measurement": "binding", "setting": "[3]", "result": "no binding"}, {"measurement": "binding", "setting": "[4]", "result": "no binding"}, {"measurement": "binding", "setting": "[5]", "result": "binds"}]}]}
